From a collection of fitness landscapes (doi:10.1126/science.1257360)
This is one part of the list.

B1: PhoQ; a variant is named by its letters at X, in order, P23837 (parent)
chain: MKKLLRLFFPLSLRVRFLLATAAVVLVLSLAYGMVALIGYSVSFDKTTFRLLRGESNLFYTLAKWENNKLHVELPENIDKQSPTMTLIYDENGQLLWAQRDVPWLMKMIQPDWLKSNGFHEIEADVNDTSLLLSGDHSIQQQLQEVREDDDDAEMTHSVAVNVYPATSRMPKLTIVVVDTIPVELKSSYMVWSWFIYVLSANLLLVIPLLWVAAWWSLRPIEALAKEVRELEEHNRELLNPATTRELTSLVRNLNRLLKSERERYDKYRTTLTDLTHSLKTPLXXLQXXLRSLRSEKMSVSDAEPVMLEQISRISQQIGYYLHRASMRGGTLLSRELHPVAPLLDNLTSALNKVYQRKGVNISLDISPEISFVGEQNDFVEVMGNVLDNACKYCLEFVEISARQTDEHLYIVVEDDGPGIPLSKREVIFDRGQRVDTLRPGQGVGLAVAREITEQYEGKIVAGESMLGGARMEVIFGRQHSAPKDE

Variants of: B1
Experiment: enrichment ratio after two sorts for PhoP signalling (ratio (wild type AVST 3.29)); higher = more functional
Details: with PhoP (E. coli)
In the case of AGTT, the enrichment ratio is reported as 5.54. PEMP was tested, and the enrichment ratio was no more than 0.25. Work on FVQK yielded an enrichment ratio of no more than 0.25. With TEAR the enrichment ratio was 7.95. WQDH gave an enrichment ratio of no more than 0.25. With YKSG the enrichment ratio was no more than 0.25. ARMK gave an enrichment ratio of no more than 0.25. Variant RWLF has an enrichment ratio of no more than 0.25. QIDS was tested, and the enrichment ratio was no more than 0.25. HRMM was tested, and the enrichment ratio was no more than 0.25. In the case of IGDH, the enrichment ratio is reported as no more than 0.25. In the case of ENGE, the enrichment ratio is reported as no more than 0.25. With HNNQ the enrichment ratio was no more than 0.25. Variant AHSP has an enrichment ratio of no more than 0.25. In the case of FSSA, the enrichment ratio is reported as no more than 0.25. With KGMY the enrichment ratio was no more than 0.25. For QFYD, the enrichment ratio was no more than 0.25. Variant PYHW has an enrichment ratio of no more than 0.25. For GHAI, the enrichment ratio was no more than 0.25. For MQNH, the enrichment ratio was no more than 0.25. MIFN showed an enrichment ratio of 11. Work on KAVA yielded an enrichment ratio of no more than 0.25. QNPM gave an enrichment ratio of no more than 0.25. Variant WWVP has an enrichment ratio of no more than 0.25. VYKM showed an enrichment ratio of no more than 0.25. With KFHN the enrichment ratio was no more than 0.25. With AHFY the enrichment ratio was no more than 0.25. QFQL was tested, and the enrichment ratio was no more than 0.25. In the case of LSQI, the enrichment ratio is reported as no more than 0.25. For WAQF, the enrichment ratio was no more than 0.25. TITL was tested, and the enrichment ratio was 9.42. For RQEN, the enrichment ratio was no more than 0.25. HSAY gave an enrichment ratio of no more than 0.25. QFIS was tested, and the enrichment ratio was no more than 0.25. MNKP was tested, and the enrichment ratio was no more than 0.25. Work on AFRP yielded an enrichment ratio of no more than 0.25. For THIS, the enrichment ratio was no more than 0.25. Work on KSIK yielded an enrichment ratio of no more than 0.25. Variant EMWL has an enrichment ratio of no more than 0.25. For PYDT, the enrichment ratio was no more than 0.25. QAIV was tested, and the enrichment ratio was no more than 0.25. LFHS was tested, and the enrichment ratio was no more than 0.25. Work on REDN yielded an enrichment ratio of no more than 0.25. REFT showed an enrichment ratio of no more than 0.25. Work on YLMC yielded an enrichment ratio of no more than 0.25. MQMH showed an enrichment ratio of no more than 0.25. Variant ACTQ has an enrichment ratio of 1.85. With RAWK the enrichment ratio was no more than 0.25. In the case of LFQF, the enrichment ratio is reported as no more than 0.25. Variant REYC has an enrichment ratio of no more than 0.25. KTPK showed an enrichment ratio of no more than 0.25. MFSC was tested, and the enrichment ratio was no more than 0.25. KIGN gave an enrichment ratio of no more than 0.25. LDMQ was tested, and the enrichment ratio was no more than 0.25. For LTKF, the enrichment ratio was no more than 0.25. DYDK gave an enrichment ratio of no more than 0.25. SRVK gave an enrichment ratio of no more than 0.25. Variant AYYF has an enrichment ratio of no more than 0.25. Variant NTFV has an enrichment ratio of no more than 0.25. In the case of MCFV, the enrichment ratio is reported as 3.99. Variant RDTN has an enrichment ratio of no more than 0.25. EVDH gave an enrichment ratio of no more than 0.25. In the case of IMRF, the enrichment ratio is reported as no more than 0.25. DQMR was tested, and the enrichment ratio was no more than 0.25. For DARK, the enrichment ratio was no more than 0.25. YNEQ gave an enrichment ratio of no more than 0.25. Work on FCRK yielded an enrichment ratio of no more than 0.25. Variant SRVT has an enrichment ratio of no more than 0.25. With VQYA the enrichment ratio was no more than 0.25. Work on AFHF yielded an enrichment ratio of no more than 0.25. For KSQM, the enrichment ratio was no more than 0.25. MWFS was tested, and the enrichment ratio was no more than 0.25. EIFD showed an enrichment ratio of no more than 0.25. Work on QELP yielded an enrichment ratio of no more than 0.25. DSWK was tested, and the enrichment ratio was no more than 0.25. In the case of MYDH, the enrichment ratio is reported as no more than 0.25. EETG was tested, and the enrichment ratio was 3.69. MCIY gave an enrichment ratio of no more than 0.25. FATH gave an enrichment ratio of no more than 0.25. In the case of LRSW, the enrichment ratio is reported as no more than 0.25. In the case of ISLL, the enrichment ratio is reported as 9.63. ILSI was tested, and the enrichment ratio was no more than 0.25. Variant FKSM has an enrichment ratio of no more than 0.25. For KHDY, the enrichment ratio was no more than 0.25. Work on QRCQ yielded an enrichment ratio of no more than 0.25. In the case of WYPV, the enrichment ratio is reported as no more than 0.25. Variant WTGI has an enrichment ratio of no more than 0.25. Work on WCIG yielded an enrichment ratio of no more than 0.25. For HNMD, the enrichment ratio was no more than 0.25. LQVT showed an enrichment ratio of no more than 0.25. For HVTN, the enrichment ratio was no more than 0.25. CNLI gave an enrichment ratio of 12.7. In the case of RFGS, the enrichment ratio is reported as no more than 0.25. For HTKT, the enrichment ratio was no more than 0.25. In the case of TKDL, the enrichment ratio is reported as no more than 0.25. With QQVF the enrichment ratio was no more than 0.25. In the case of WDIW, the enrichment ratio is reported as no more than 0.25. QRRH was tested, and the enrichment ratio was no more than 0.25. In the case of PTWL, the enrichment ratio is reported as no more than 0.25. With PITR the enrichment ratio was no more than 0.25. HVFA gave an enrichment ratio of no more than 0.25. Work on QTPG yielded an enrichment ratio of no more than 0.25. With QHGE the enrichment ratio was no more than 0.25. With LNCS the enrichment ratio was no more than 0.25. For PVEY, the enrichment ratio was no more than 0.25. Work on TMHM yielded an enrichment ratio of no more than 0.25. VEFL gave an enrichment ratio of no more than 0.25. NPER gave an enrichment ratio of no more than 0.25. FSKC gave an enrichment ratio of no more than 0.25. KAFW gave an enrichment ratio of no more than 0.25. With RQME the enrichment ratio was no more than 0.25. In the case of NRFW, the enrichment ratio is reported as no more than 0.25. Variant IAYW has an enrichment ratio of no more than 0.25. PMEI gave an enrichment ratio of no more than 0.25. AESP was tested, and the enrichment ratio was no more than 0.25. Variant KSFD has an enrichment ratio of no more than 0.25. Work on WAKS yielded an enrichment ratio of no more than 0.25. With DCAW the enrichment ratio was no more than 0.25. With WTPE the enrichment ratio was no more than 0.25. Work on FSGC yielded an enrichment ratio of no more than 0.25. TWQH showed an enrichment ratio of no more than 0.25. For ILTI, the enrichment ratio was no more than 0.25. KHIN was tested, and the enrichment ratio was no more than 0.25. MFIQ showed an enrichment ratio of no more than 0.25. RPPW was tested, and the enrichment ratio was no more than 0.25. Work on PCAH yielded an enrichment ratio of no more than 0.25. For YNGE, the enrichment ratio was no more than 0.25. VMNR showed an enrichment ratio of no more than 0.25. RTMG gave an enrichment ratio of no more than 0.25. With LLEK the enrichment ratio was no more than 0.25. With NRMQ the enrichment ratio was no more than 0.25. Variant WKQI has an enrichment ratio of no more than 0.25. With LMFR the enrichment ratio was no more than 0.25. TPRW was tested, and the enrichment ratio was no more than 0.25. In the case of DPMV, the enrichment ratio is reported as no more than 0.25. For DKYL, the enrichment ratio was no more than 0.25. With AKFR the enrichment ratio was no more than 0.25. EFNR showed an enrichment ratio of no more than 0.25. LMIV was tested, and the enrichment ratio was no more than 0.25. LEFV was tested, and the enrichment ratio was 7.47. LYSM showed an enrichment ratio of no more than 0.25. LNKH gave an enrichment ratio of no more than 0.25. Work on IAYD yielded an enrichment ratio of no more than 0.25. Variant QTKL has an enrichment ratio of no more than 0.25. With RGKL the enrichment ratio was no more than 0.25. For VKLQ, the enrichment ratio was no more than 0.25. In the case of HNVI, the enrichment ratio is reported as no more than 0.25. AGPW was tested, and the enrichment ratio was no more than 0.25. Variant RENA has an enrichment ratio of no more than 0.25. GADL showed an enrichment ratio of no more than 0.25. For ECQF, the enrichment ratio was no more than 0.25. QVRW gave an enrichment ratio of no more than 0.25. With LTGP the enrichment ratio was 0.646. Work on NCMK yielded an enrichment ratio of no more than 0.25. For SFEK, the enrichment ratio was no more than 0.25. QDCA was tested, and the enrichment ratio was no more than 0.25. In the case of DQVW, the enrichment ratio is reported as no more than 0.25. With WTFK the enrichment ratio was no more than 0.25. In the case of VRHM, the enrichment ratio is reported as no more than 0.25. KYWF gave an enrichment ratio of no more than 0.25. In the case of KLST, the enrichment ratio is reported as no more than 0.25. In the case of IPNP, the enrichment ratio is reported as no more than 0.25. Work on GIMF yielded an enrichment ratio of 6.62. For MKYP, the enrichment ratio was no more than 0.25. For ARDD, the enrichment ratio was no more than 0.25. In the case of YHTF, the enrichment ratio is reported as no more than 0.25. LVQV was tested, and the enrichment ratio was no more than 0.25. TDAH gave an enrichment ratio of 9.5. In the case of MSPE, the enrichment ratio is reported as no more than 0.25. In the case of PGTP, the enrichment ratio is reported as no more than 0.25. Work on QNMM yielded an enrichment ratio of no more than 0.25. With INQS the enrichment ratio was no more than 0.25. Variant GPTI has an enrichment ratio of no more than 0.25. Variant LNFD has an enrichment ratio of no more than 0.25. Work on VNCW yielded an enrichment ratio of no more than 0.25. APCA showed an enrichment ratio of no more than 0.25. GFQY gave an enrichment ratio of no more than 0.25. Work on WSSF yielded an enrichment ratio of no more than 0.25. In the case of GFSM, the enrichment ratio is reported as no more than 0.25. In the case of DRMG, the enrichment ratio is reported as no more than 0.25. For QQDF, the enrichment ratio was no more than 0.25. Work on KFTC yielded an enrichment ratio of no more than 0.25. Variant VRMH has an enrichment ratio of no more than 0.25. YHAK was tested, and the enrichment ratio was no more than 0.25. LGVY was tested, and the enrichment ratio was no more than 0.25. Work on VKVN yielded an enrichment ratio of no more than 0.25. Work on RDTH yielded an enrichment ratio of no more than 0.25. Variant HIQL has an enrichment ratio of no more than 0.25. In the case of QDKT, the enrichment ratio is reported as no more than 0.25. TSFP was tested, and the enrichment ratio was no more than 0.25. For EVAG, the enrichment ratio was no more than 0.25. KDPW was tested, and the enrichment ratio was no more than 0.25. PGHM was tested, and the enrichment ratio was no more than 0.25. Work on MFPD yielded an enrichment ratio of no more than 0.25. For VDCD, the enrichment ratio was no more than 0.25.
